Target: T1, human IL-2Rα-Fc fusion protein (human, UniProt P01589 22-240, limits assumed)
T1 construct: also called CD25; not shown: Fc portion
T1 sequence (looked up): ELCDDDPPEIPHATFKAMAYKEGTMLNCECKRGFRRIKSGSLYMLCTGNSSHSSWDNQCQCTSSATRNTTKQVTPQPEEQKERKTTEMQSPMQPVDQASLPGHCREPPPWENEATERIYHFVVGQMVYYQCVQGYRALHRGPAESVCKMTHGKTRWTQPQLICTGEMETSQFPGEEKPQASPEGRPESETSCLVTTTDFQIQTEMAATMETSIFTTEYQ
Assay: SPR (Biacore T-100), receptor-Fc captured on antihuman antibody, compared with aldesleukin

B1: RSLAIL-2 (multiPEGylated recombinant human IL-2 with the aldesleukin sequence; composition of primarily 4-mers, 5-mers and 6-mers of releasably attached … (ligand)
chain: not shown
modifications: primarily 4, 5 or 6 branched 20 kD polyethylene glycol moieties (C2-PEG2-FMOC-20K) releasably covalently attached via carbamate; attachment residues not stated
notes: A mixture of PEGylated species, not one compound; also called long acting IL-2Rαβ-biased agonist; long acting IL-2Rβ-biased agonist
binding result: binds
